ChEMBL document CHEMBL4888484, “Replenishing the malaria drug discovery pipeline: Screening and hit evaluation of the MMV Hit Generation Library 1 (HGL1) against asexual blood stage Plasmodium falciparum ,using a nano luciferase reporter read-out” (2022)
Where “and” joins values, the source holds several entries; their conditions need not be identical. Equal values may be shown once. Hit rate of the full screen: of about 150,000 compounds, about 540 (0.36%) showed an effect of 50% or more. This is one part of the list.

Tested on: Plasmodium falciparum
Experiment: Primary screen in NF54 nanoGlo assay, in single point, at 2uM, 72h; a lower Z score goes with more inhibition
Assay type: functional, Erythrocyte
Settings: timepoint 72 hour

C#CCNC(=O)c1cc(CC)c(C)s1
% Inhibition: 3% | Z score: -0.39

CCc1nc(COc2ccc(C(=O)N[C@H]3CCN(C)C(=O)C3)cc2)no1
% Inhibition: -6% | Z score: 0.57

Cc1noc(C)c1CN1CC2(CCN(C(=O)c3ccc(C#N)nc3)CC2)CC1=O
% Inhibition: -3% | Z score: 0.42

Cc1cc(C)cc(-n2nc(-c3ccco3)nc2[C@H]2CCCN(C(N)=O)C2)c1
% Inhibition: -2% | Z score: 0.27

Cc1cccc(CC(=O)N2CC[C@H](Cc3noc(C4CC4)n3)C2)c1
% Inhibition: -10% | Z score: 1.24

O=C(NCCc1ccccn1)C1CCOCC1
% Inhibition: -28% | Z score: 3.24

Cc1ccc(CNCc2ccc(N3CCCC3=O)cc2)c(C)c1
% Inhibition: 29% | Z score: -3.94

CN1CCC2(CC1)Nc1cc(F)c(F)cc1-c1nc(=O)c(-c3ccc(F)cc3)nn12
% Inhibition: 5% | Z score: -1

Cc1nc(NC(=O)[C@H](C)c2cccs2)cc(C2CC2)n1
% Inhibition: -12% | Z score: 2.27

CCCCS(=O)(=O)N[C@H]1C[C@H](c2cc(=O)[nH]c(COC)n2)C1
% Inhibition: -14% | Z score: 1.85

C=CCn1ccc(=O)c2c(C(F)(F)F)nccc21
% Inhibition: -31% | Z score: 3.58

CCN(CC(=O)NC(=O)Nc1ccc(C)c(C)c1)[C@@H](C)c1cccc(O)c1
% Inhibition: -2% | Z score: 0.45

CC(=O)N[C@H]1CCN(S(=O)(=O)c2sc(C)cc2C)C1
% Inhibition: -1% | Z score: 0.15

C=CCN1CC2(CCC1=O)CCN(C(=O)[C@H](C)n1cnnn1)CC2
% Inhibition: -10% | Z score: 1.7

Cc1cc(NC(=O)C(C)C)c(C)cc1O
% Inhibition: -10% | Z score: 1.07

Cc1ncsc1CN1CCCN(S(=O)(=O)N2CCCCC2)CC1
% Inhibition: -8% | Z score: 0.93

O=C(Cc1ccc(Cl)cc1)N1CCCC[C@@H]1CCN1CCCCC1
% Inhibition (2 µM): -7% and -9% | Z score (2 µM): 1.01 and 1.25

CN(CC1COCCO1)C(=O)C1CC(Cc2ccc(F)cc2)=NO1 (stereo not drawn)
% Inhibition: -18% | Z score: 2.3

CC(C)=CCN1CC2(CCN(C(=O)c3onc4c3CCCC4)CC2)CC1=O
% Inhibition: -6% | Z score: 0.61

CC1CN(CCN2CCCC(n3ccc(C(F)(F)F)n3)C2)CCO1 (stereo not drawn)
% Inhibition: -14% | Z score: 1.71

COc1ccc([C@H](C(=O)Nc2ccc(N3CCOCC3)cc2)N(Cc2ccc(C)cc2)C(=O)Cn2nnc3ccccc32)cc1OC
% Inhibition: -2% | Z score: 0.19

CCS(=O)(=O)N1CCN(C(=O)[C@H]2C[C@@H]2c2cnn(C)c2)CC1
% Inhibition: -3% | Z score: 0.57

CC(C)Cc1nc(CO[C@H]2CCCN(C(=O)CC3CCN(C)CC3)C2)no1
% Inhibition: 3% | Z score: -0.42

COc1ccc(C[C@@H](Cc2ccc3c(c2)OCO3)NC(=O)c2ccccc2C)cc1
% Inhibition: -2% | Z score: 0.31

c1ccc(C2CN([C@H]3CCOC4(CCOCC4)C3)C2)nc1
% Inhibition: 9% | Z score: -1.2

CCc1ccc(-c2ccc(C(=O)N(CC)CCCN(C)C)o2)cc1
% Inhibition: -5% | Z score: 0.95

COCCCN1C[C@]2(CCCN(c3ncccn3)C2)CCC1=O
% Inhibition: 2% | Z score: -0.33

O=C(Nc1ccc(N2CCN(C3CCCC3)C2=O)nc1)c1ccc2c(c1)OCO2
% Inhibition: -12% | Z score: 1.27

O=C(NCCn1cc(-c2cccnc2)cn1)c1cncc(Br)c1
% Inhibition: 5% | Z score: -0.64

COC(=O)N1CCC(N[C@H]2CCCc3ccc(F)cc32)CC1
% Inhibition: -4% | Z score: 0.51

CN(C)c1cnn(Cc2nc3ncccn3n2)c(=O)c1
% Inhibition: -3% | Z score: 0.5

COc1ccc2nc(NC(=O)C3CC=C(C)CC3C(=O)O)sc2c1 (stereo not drawn)
% Inhibition: -29% | Z score: 3.41

Cc1nc(Cc2noc(-c3cc(C4CC4)nc4ccccc34)n2)no1
% Inhibition: -1% | Z score: 0.15

CC(=O)NCc1ccc(-c2nc3ccccc3c(-c3ccccc3)c2Cl)o1
% Inhibition: -14% | Z score: 2.14

CCN(Cc1cc2c(cc1OC)OCCCO2)[C@H]1CCCC[C@@H]1O
% Inhibition: -11% | Z score: 1.86

CN1CCC(NC(=O)C2CCN(C(=O)c3ncn4c3CO[C@H](c3ccc(F)cc3)C4)CC2)CC1
% Inhibition: -12% | Z score: 1.08

C[C@H](NC1CCN(Cc2ccccc2)CC1)C(=O)NCc1ccco1
% Inhibition: -4% | Z score: 0.54

CC(C)C1CCCC(NC(=O)N(C)Cc2ncnn2CC(F)F)CC1 (stereo not drawn)
% Inhibition: -9% | Z score: 1.66

CN(CCCNC(=O)c1cccc(-c2ccccc2C#N)c1)C1CCCC1
% Inhibition: -16% | Z score: 1.4

Cc1cc(C)c(-c2nc(-c3ccncc3)no2)c(=O)[nH]1
% Inhibition: -13% | Z score: 2.55

CCc1nnc(-c2nc3c([nH]2)CCCNC3=O)o1
% Inhibition: -16% | Z score: 1.66

Cc1ccc(NC(=O)c2ncn3c2C(=O)N(C2CC2)[C@](C)(C(=O)NCc2ccc(F)cc2)C3)cc1
% Inhibition: -17% | Z score: 1.72

CCCc1ncncc1C(=O)N[C@H]1CS(=O)(=O)C[C@@H]1OC
% Inhibition: -11% | Z score: 1.66

CC(C)CNC(=O)[C@H](C)N(C)Cc1noc(C2CCC2)n1
% Inhibition: -7% | Z score: 1.13

Cc1ncccc1NC(=O)[C@H](N)C(C)C
% Inhibition: -9% | Z score: 1.08

CCOC(=O)c1[nH]c(C)c(C(=O)N2CCN(S(=O)(=O)c3ccccc3Cl)CC2)c1C
% Inhibition: -15% | Z score: 1.69

CCCCCOC(=O)NC[C@H](O)c1ccccc1
% Inhibition: -6% | Z score: 1.21

COc1c(F)cc(F)cc1NCc1ccc(-c2ccn[nH]2)o1
% Inhibition: -8% | Z score: 0.81

COc1ccccc1NC(=O)Cn1nc2c3sc(N(C)C)nc3ncn2c1=O
% Inhibition: -14% | Z score: 1.4

CC[C@H]1CC[C@H](NC(=O)c2cnc3ccccn23)CC1
% Inhibition: -2% | Z score: 0.32

COc1ccc(CNC(=O)c2nonc2C)cc1OC
% Inhibition: -12% | Z score: 1.42

CCOC(=O)c1c(Cc2ccccc2)n(CCc2ccccc2)c(C)cc1=O
% Inhibition: 1% | Z score: -0.14

CCCOc1ccc(C(=O)Nc2nc3ccc(NC(C)=O)cc3o2)cc1
% Inhibition: -23% | Z score: 4.44

CN(Cc1ccsc1)C(=O)CONC(=O)CCOc1ccccc1
% Inhibition: 8% | Z score: -1.16

CCOc1ccc(-c2nccn2CCc2cnccn2)cc1CO
% Inhibition: -17% | Z score: 1.59

CCN(C)C[C@H](C)C(=O)Nc1c(C)cnn1Cc1cccc(C)c1
% Inhibition: -7% | Z score: 1.39

Cc1ccc(-c2ccccc2CN2CCC(c3cc[nH]n3)CC2)o1
% Inhibition: -10% | Z score: 1.6

O=C(NC1CCN(C(=O)CCc2ccccc2)C1)N[C@H]1CC[C@H]1c1ccccc1 (stereo partly drawn)
% Inhibition: 6% | Z score: -0.84

COc1nc(CNC(=O)COc2ccc(Cl)cc2)nc(N2CCOCC2)n1
% Inhibition: 2% | Z score: -0.21

CCOC(=O)c1cc(C(=O)NCc2ccccn2)n(C)n1
% Inhibition: -6% | Z score: 0.79

COc1ccc(N2CCN(Cc3ccc(-c4ccccc4)cc3)CC2)cc1
% Inhibition: 5% | Z score: -1

Cc1nnc2c(=O)n(CC(=O)NCc3cccc(Cl)c3)c3cccnc3n12
% Inhibition: -2% | Z score: 0.25

Cn1cc(C(=O)N2CC[C@H](c3noc(COc4ccc(F)cc4)n3)C2)cn1
% Inhibition: -5% | Z score: 1

O=C(C[C@@H]1N=C(O)N(c2cccc3ccccc23)C1=O)NCCc1ccco1
% Inhibition: -6% | Z score: 0.75

NCC(=O)Nc1nn(Cc2ccccc2)c2cccc(N3CCOCC3)c12
% Inhibition: 9% | Z score: -1.28

O=C1CCCc2cc(C(=O)N[C@H]3C[C@H](CO)C3)ccc2N1
% Inhibition: -7% | Z score: 1.45

CC(C)CC(C)(C)C(=O)N1CCO[C@H](C(=O)O)C1
% Inhibition: 2% | Z score: -0.37

O=C(Cn1nnnc1CN1CCCCCC1)N1CCN(c2ccccc2)CC1
% Inhibition: -13% | Z score: 1.44

Cc1ncnc(N2CCC3(CC2)c2nc[nH]c2CCN3S(C)(=O)=O)c1C
% Inhibition: -13% | Z score: 1.85

COc1ccccc1NC(=O)Cn1ccnc1[C@H](O)c1ccccc1
% Inhibition: -10% | Z score: 1.6

CCNC(=O)CCc1c(C)nn(-c2cccc(C)c2)c1Oc1ccccc1
% Inhibition: -3% | Z score: 0.34

COc1ccc(C(=O)Nc2cnc3ccnn3c2)c(OC)c1
% Inhibition: -1% | Z score: 0.14

Cc1cn2cc(C(=O)N(C)CCCCN3CCOCC3)ccc2n1
% Inhibition: -16% | Z score: 1.66

Cc1ccc(C(=O)N(CC(=O)Nc2nc(CC(=O)NCc3ccc(F)cc3)cs2)C(C)C)cc1
% Inhibition: 2% | Z score: -0.34

CN(C)S(=O)(=O)c1ccc(Cl)c(F)c1Cl
% Inhibition: 3% | Z score: -0.41

CCOC[C@@H](O)CN1CCN(Cc2nc(C(=O)Nc3ccc(OC)cc3)co2)CC1
% Inhibition: -14% | Z score: 1.97

CS(=O)(=O)Cc1ccc(C#CCC2CCCC2)nc1
% Inhibition: -5% | Z score: 0.95

COc1ccc(CN2C[C@H]3COC[C@@]3(c3nnc(C)o3)C2)cc1F
% Inhibition: -5% | Z score: 0.71

Nc1nc(-c2ccccc2Cl)nn1C(=O)c1cccc2ccccc12
% Inhibition: -10% | Z score: 1.71

Cn1cnc(NCc2nnc(C3CC3)s2)cc1=O
% Inhibition: -4% | Z score: 0.46

c1ccc(-c2ncn(CCc3c[nH]cn3)c2-c2cnc3ccccc3c2)cc1
% Inhibition: -8% | Z score: 1.47

CCn1cnnc1C[C@H]1CCCN(C(=O)NCC(C)C)C1
% Inhibition: -5% | Z score: 0.7

O=C(Cn1c(-c2cccs2)cc2cc(F)ccc21)N1CCOCC1
% Inhibition: 12% | Z score: -1.94

CN1C(=O)c2cc(NC(=O)COc3ccccc3)ccc2Oc2ncccc21
% Inhibition: 3% | Z score: -0.4
